Measured values: a collection of fitness landscapes (doi:10.1016/j.celrep.2020.107928)
The full ranking holds about 81,000 sequences; the median of “one-hybrid fitness for binding NBS DNA” is about -0.1, and the highest 2% start at about 0.36. The list shows a part of the results.

B1: Caulobacter ParB omega fusion; a variant is named by its letters at X, in order, B8GW30 (parent)
chain: MESVVVGEPGMSEGRRGLGRGLSALLGEVDAAPAQAPGEQLGGSREAPIEILQRNPDQPRRTFREEDLEDLSNSIREKGVLQPILVRPSPDTAGEYQIVAGERAWRAAQRAGLKTVPIMVRELDDLAVLEIGIIENVQRADLNVLEEALSYKVLMEKFERTQENIAQTIGKSXSHVANXMRLLXLPDEVQSYLVSGELTAXHARAIAAAADPVALAKQIIEGGLSVRETEALARKAPNLSAGKSKGGRPPRVKDTDTQALESDLSSVLGLDVSIDHRGSTGTLTITYATLEQLDDLCNRLTRGI

Variants of: B1
Assay: one-hybrid fitness for binding NBS DNA (the Noc-binding site; scaled: cognate 1, non-cognate 0); higher = stronger binding
Conditions: with NBS DNA site
Procedure, shortened: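 In E. coli USO, a HIS3 reporter with its site placed 19 bp from the promoter was used to select Caulobacter ParB variants randomised at four specificity codons. Growth lasted 48 hours at 37°C on histidine-free M9 containing 0.1 mM IPTG and 5 mM 3-AT. Fitness was taken as the log change in variant-to-wild-type read ratio from Illumina sequencing of pre- and post-selection plasmids, rescaled between the non-cognate and cognate sites.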

one-hybrid fitness for binding NBS DNA, 0.381:
KKRT

one-hybrid fitness for binding NBS DNA, 0.353:
QSSS

one-hybrid fitness for binding NBS DNA, ≤ 0.2:
QTPA
HNKS
AMQT
MRSG
QQVV
FGRW
YVYF
VRLA
HTIF
RQRE
KDTS
SLEC
REVA
GPVI
NYAY
AVGD
IHDG
LKEN
ANYM
GHVW
GCWS
HPYD
GLKM
QKMW
GTVW
HIHG
IFRN
NHRK
YHYG
ACSE
PHSA
EANL
APTV
NMNW
TFRL
NTPS
FLGG
CRRQ
WSHR
TQTL
LNLT
NALM
ILPV
IQPT
TQYF
HTWC
LRMK
LHGW
PHAM
SVLL
HRQG
VTTK
HQEF
SLYN
GRHW
VPMR
TDYE
TIPS
PGAC
SANV
LVHS
HLQI
YHAG
KKLA
VRRF
YWHS
LYHI
TMIH
KRQL
AIHP
WRWW
DIDG
DAPP
FCSA
DWPE
EWVM
TQHV
SYHY
FHYF
NDMP
SAMT

one-hybrid fitness for binding NBS DNA, 0.211:
QLRF
